Measurements reported in paper PMC7308337.
These are yes or no findings as the source states them, for the method shown. In cells and extracts the contact can be indirect. Some entries that bind do so weakly or less than the wild type. Where a sequence is shown, tags or fusion partners need not be part of it.

Sequences of proteins named here, by UniProt entry; tags and fusion partners are left off. A change or cut given only in a name is not applied to a line headed by its entry.
UniProt Q9Y5Y6: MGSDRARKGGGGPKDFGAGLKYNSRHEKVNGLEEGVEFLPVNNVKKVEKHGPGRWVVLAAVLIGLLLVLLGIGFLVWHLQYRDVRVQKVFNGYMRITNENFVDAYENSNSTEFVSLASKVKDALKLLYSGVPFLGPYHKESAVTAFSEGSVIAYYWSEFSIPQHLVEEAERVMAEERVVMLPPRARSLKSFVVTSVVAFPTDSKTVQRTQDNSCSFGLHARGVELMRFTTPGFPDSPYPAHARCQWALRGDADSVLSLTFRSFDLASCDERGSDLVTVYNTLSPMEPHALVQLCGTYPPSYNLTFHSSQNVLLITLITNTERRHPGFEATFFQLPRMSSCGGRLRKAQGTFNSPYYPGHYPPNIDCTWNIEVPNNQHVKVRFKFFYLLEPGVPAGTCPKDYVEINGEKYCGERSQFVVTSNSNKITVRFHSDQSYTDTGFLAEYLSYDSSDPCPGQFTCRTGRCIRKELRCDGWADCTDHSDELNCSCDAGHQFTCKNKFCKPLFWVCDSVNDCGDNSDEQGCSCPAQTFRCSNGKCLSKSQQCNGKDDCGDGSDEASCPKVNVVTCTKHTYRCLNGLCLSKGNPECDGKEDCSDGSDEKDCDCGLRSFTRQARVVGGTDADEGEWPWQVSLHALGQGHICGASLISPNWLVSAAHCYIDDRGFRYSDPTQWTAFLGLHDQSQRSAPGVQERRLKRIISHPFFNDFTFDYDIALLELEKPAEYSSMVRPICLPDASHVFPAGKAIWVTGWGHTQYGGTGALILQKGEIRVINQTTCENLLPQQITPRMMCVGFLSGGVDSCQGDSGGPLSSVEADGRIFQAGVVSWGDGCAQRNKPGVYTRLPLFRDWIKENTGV

T1: GST-APLP1 C-term (intracellular domain of APLP1) (human) (UniProt P51693)
T1 sequence: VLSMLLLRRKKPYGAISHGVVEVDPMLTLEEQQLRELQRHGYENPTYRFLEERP

T2: GST-APLP1 N-term (extracellular domain of APLP1) (human) (UniProt P51693)
T2 sequence: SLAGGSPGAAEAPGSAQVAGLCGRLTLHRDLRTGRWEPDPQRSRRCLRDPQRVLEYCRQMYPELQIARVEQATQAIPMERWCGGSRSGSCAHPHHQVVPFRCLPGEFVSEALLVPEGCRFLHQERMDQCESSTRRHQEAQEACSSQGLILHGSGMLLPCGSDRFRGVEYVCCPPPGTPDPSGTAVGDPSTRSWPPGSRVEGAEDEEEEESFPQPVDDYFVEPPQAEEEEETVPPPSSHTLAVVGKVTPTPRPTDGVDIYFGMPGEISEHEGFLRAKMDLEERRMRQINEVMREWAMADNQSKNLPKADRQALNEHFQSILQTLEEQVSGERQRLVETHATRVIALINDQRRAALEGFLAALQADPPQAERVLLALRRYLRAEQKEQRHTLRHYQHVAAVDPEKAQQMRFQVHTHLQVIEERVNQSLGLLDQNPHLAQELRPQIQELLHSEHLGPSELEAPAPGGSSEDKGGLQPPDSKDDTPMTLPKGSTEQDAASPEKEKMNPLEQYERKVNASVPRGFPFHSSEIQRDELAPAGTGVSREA

T3: APLP1 fused at its C terminus to GFP10 or RLucII (BRET2 pair) (human) (UniProt P51693)
T3 sequence: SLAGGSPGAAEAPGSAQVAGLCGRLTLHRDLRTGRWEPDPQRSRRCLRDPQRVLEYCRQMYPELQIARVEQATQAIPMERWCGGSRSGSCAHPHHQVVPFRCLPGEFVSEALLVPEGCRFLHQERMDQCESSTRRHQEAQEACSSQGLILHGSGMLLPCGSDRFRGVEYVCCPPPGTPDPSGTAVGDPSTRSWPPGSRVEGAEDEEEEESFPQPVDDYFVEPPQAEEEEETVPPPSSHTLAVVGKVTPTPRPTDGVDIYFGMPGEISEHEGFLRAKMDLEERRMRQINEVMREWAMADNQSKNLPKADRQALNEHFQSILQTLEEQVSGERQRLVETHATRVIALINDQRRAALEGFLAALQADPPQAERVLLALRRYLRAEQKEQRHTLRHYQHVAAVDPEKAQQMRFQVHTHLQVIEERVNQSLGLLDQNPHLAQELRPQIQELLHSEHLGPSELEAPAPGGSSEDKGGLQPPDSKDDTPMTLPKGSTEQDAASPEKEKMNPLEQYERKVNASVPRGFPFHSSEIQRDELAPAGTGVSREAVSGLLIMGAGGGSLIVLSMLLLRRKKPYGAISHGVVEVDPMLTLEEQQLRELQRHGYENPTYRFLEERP

T4: GFP-tagged APLP1 (amyloid-like protein 1) (human) (UniProt P51693)
T4 sequence: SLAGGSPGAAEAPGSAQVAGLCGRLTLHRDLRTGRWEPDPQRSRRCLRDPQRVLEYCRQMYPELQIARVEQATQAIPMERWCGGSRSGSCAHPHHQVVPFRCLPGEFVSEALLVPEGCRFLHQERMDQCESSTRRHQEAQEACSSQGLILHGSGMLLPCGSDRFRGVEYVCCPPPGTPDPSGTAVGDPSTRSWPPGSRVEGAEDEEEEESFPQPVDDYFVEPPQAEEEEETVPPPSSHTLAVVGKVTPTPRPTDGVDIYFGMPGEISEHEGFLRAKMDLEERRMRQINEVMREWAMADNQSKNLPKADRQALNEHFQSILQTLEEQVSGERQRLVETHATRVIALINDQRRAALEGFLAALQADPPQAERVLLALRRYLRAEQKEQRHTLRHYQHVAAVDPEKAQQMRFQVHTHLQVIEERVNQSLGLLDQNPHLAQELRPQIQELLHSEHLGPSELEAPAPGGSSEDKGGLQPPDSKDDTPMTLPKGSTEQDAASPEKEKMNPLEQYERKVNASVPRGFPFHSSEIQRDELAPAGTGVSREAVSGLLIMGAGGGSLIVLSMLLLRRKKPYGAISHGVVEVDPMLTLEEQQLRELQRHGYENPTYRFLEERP

T5: APLP1 tagged at its C-terminus with Flag (human) (UniProt P51693)
T5 sequence: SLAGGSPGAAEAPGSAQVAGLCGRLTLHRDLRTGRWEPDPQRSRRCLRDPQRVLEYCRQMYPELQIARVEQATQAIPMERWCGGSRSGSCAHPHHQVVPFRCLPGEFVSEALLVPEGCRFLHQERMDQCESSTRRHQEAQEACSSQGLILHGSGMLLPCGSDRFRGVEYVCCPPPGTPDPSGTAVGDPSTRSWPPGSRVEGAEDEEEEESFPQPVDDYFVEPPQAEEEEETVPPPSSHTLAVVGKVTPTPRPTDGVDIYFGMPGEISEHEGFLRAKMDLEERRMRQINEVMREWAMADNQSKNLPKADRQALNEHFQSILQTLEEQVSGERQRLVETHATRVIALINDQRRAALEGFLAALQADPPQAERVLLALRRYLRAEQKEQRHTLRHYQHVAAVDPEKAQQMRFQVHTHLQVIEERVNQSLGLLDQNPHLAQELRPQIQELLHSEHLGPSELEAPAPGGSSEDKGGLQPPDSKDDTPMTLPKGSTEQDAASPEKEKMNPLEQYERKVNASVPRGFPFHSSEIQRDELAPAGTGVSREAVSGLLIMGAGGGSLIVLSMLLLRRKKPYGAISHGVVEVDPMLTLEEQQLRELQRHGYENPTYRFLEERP


Key:
[1] = target: T1, GST-APLP1 C-term (intracellular domain of APLP1) (human); assay: pull-down; 10 μg purified GST or GST fusion on glutathione beads, incubated with in vitro translated 35S-labeled matriptase; 20 mM Tris-HCl pH 7.4, 150 mM NaCl, 1% triton x-100, 2 h at 4 °C; autoradiography; only the target purified
[2] = target: T2, GST-APLP1 N-term (extracellular domain of APLP1) (human); assay: as above
[3] = target: T3, APLP1 fused at its C terminus to GFP10 or RLucII (BRET2 pair) (human); assay: FRET or BRET; BRET2 in HEK293T cells: fixed APLP1-GFP10 and APLP1-RLucII, co-transfected with increasing DNA of matriptase WT or S805A
[4] = target: T4, GFP-tagged APLP1 (amyloid-like protein 1) (human); assay: co-IP; co-immunoprecipitation of APLP1 with active and inactive (S805A) matriptase, referred to in the text; APLP1 construct and figure not named
[5] = target: T3, APLP1 fused at its C terminus to GFP10 or RLucII (BRET2 pair) (human); assay: FRET or BRET; BRET2 saturation in HEK293T cells: fixed RLucII-tagged APLP1 (100 ng DNA), increasing DNA of GFP10-tagged acceptor; 5 μM coelenterazine 400 A
[6] = target: T5, APLP1 tagged at its C-terminus with Flag (human); assay: co-IP; APLP1 tagged at its C-terminus with Flag and matriptase, in cellulo; Supplementary Fig. S2
[7] = target: T4, GFP-tagged APLP1 (amyloid-like protein 1) (human); assay: co-IP; HEK293T cells co-transfected; lysis in 50 mM Tris pH 7.4, 150 mM NaCl, 1% triton x-100; GFP-Trap beads overnight at 4 °C; immunoblot with anti-matriptase

binding [3] | binding [5] | Molecule | also measured
 |  | in vitro translated 35S-labeled matriptase (from UniProt Q9Y5Y6 1-855) (enzyme) | binding [1]: no binding; binding [2]: binds
binds |  | catalytically inactive matriptase S805A (from UniProt Q9Y5Y6 1-855) (enzyme) | binding [4]: binds
 | no binding | angiotensin II type 1 receptor tagged with GFP10 (from UniProt P30556 1-359) | 
binds |  | matriptase, wild type (from UniProt Q9Y5Y6 1-855) (enzyme) | binding [6]: binds; binding [7]: binds
binds | binds | APLP1 fused at its C terminus to GFP10 or RLucII (BRET2 pair) (protein, UniProt P51693 39-650) SLAGGSPGAAEAPGSAQVAGLCGRLTLHRDLRTGRWEPDPQRSRRCLRDPQRVLEYCRQMYPELQIARVEQATQAIPMERWCGGSRSGSCAHPHHQVVPFRCLPGEFVSEALLVPEGCRFLHQERMDQCESSTRRHQEAQEACSSQGLILHGSGMLLPCGSDRFRGVEYVCCPPPGTPDPSGTAVGDPSTRSWPPGSRVEGAEDEEEEESFPQPVDDYFVEPPQAEEEEETVPPPSSHTLAVVGKVTPTPRPTDGVDIYFGMPGEISEHEGFLRAKMDLEERRMRQINEVMREWAMADNQSKNLPKADRQALNEHFQSILQTLEEQVSGERQRLVETHATRVIALINDQRRAALEGFLAALQADPPQAERVLLALRRYLRAEQKEQRHTLRHYQHVAAVDPEKAQQMRFQVHTHLQVIEERVNQSLGLLDQNPHLAQELRPQIQELLHSEHLGPSELEAPAPGGSSEDKGGLQPPDSKDDTPMTLPKGSTEQDAASPEKEKMNPLEQYERKVNASVPRGFPFHSSEIQRDELAPAGTGVSREAVSGLLIMGAGGGSLIVLSMLLLRRKKPYGAISHGVVEVDPMLTLEEQQLRELQRHGYENPTYRFLEERP | 
